# In PubChem BioAssay AID686978 (National Center for Advancing Translational Sciences (NCATS), 2013):
# Values joined by “and” are separate entries in the source; they are usually repeats but may differ in a detail not shown here. Equal values may be shown once. Hit rate of the full screen: of about 420,000 compounds, about 64,000 (15%) were called active. Inconclusive means that the source gave no clear call. Such entries were picked first, then a sample of the others. Calls come from the whole dose curve; as a rule, active = well fitted inhibition curve with a large enough effect; inconclusive = small, poorly fitted or top-dose-only effect; inactive = flat fitted curve, though single readings scatter. Potencies of inconclusive entries are doubtful fits and often do not repeat.
# Test: qHTS for Inhibitors of human tyrosyl-DNA phosphodiesterase 1 (TDP1): qHTS in cells in absence of CPT; note: nearly all actives have a fitted effect of over 55% in size
# Conditions: DT40 Tdp1-/- hTDP1 cells, no CPT, ATP luminescence, 48 h; activity change, negative = growth inhibition: at 46.2 µM (top of the series) unless noted
# In short: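 DT40 Tdp1-/-;hTDP1 cells, no CPT (DMSO vehicle only), 400 cells/well; compounds pin-transferred; ≥48 hr, 37 °C; CellTiter-Glo 30 min RT dark, luminescence read.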
# % is set by controls: 0 for no effect and ±100 for the full control effect; potency is the fitted concentration of half-maximal effect; tags give direction and shape of the fitted curve.
Structure (SMILES),Potency,"activity change, negative = growth inhibition"
CC(=O)NC1CC2CCCC(C1)N2C(=O)Nc1ccc(Cl)cc1 (stereo not given),inactive,
O=C(Cc1ccccc1)NCC(=O)OCC(=O)c1cccc([N+](=O)[O-])c1,inactive,
CN(C)CCNC(=O)c1cc2c(s1)-c1ccccc1OC2,"inconclusive: 29.1 µM [inhibitor, single point]",
CCN(CC)c1ccc(C=Nc2cc(C)ccc2C)c(O)c1,"inconclusive: 29.1 µM [inhibitor, single point]",
O=C(Nc1ccc(O)c(-c2nc3ccccc3o2)c1)C1(c2ccc([N+](=O)[O-])cc2)CCCC1,"inconclusive: 9.2 µM [inhibitor, partial curve, poor fit]",
CCOc1cc(CNn2c(C)nnc2SCC(=O)NC(C)(C)C)ccc1OCC(=O)NC(C)(C)C,"inconclusive: 29.1 µM [inhibitor, single point]",
O=C(COc1ccccc1)Nc1nnc(SCc2cc(=O)c3ccccc3[nH]2)s1,"inconclusive: 23.1 µM [inhibitor, single point]",
Clc1ccc(-c2noc(-c3cccnc3N3CCN(c4ccccc4)CC3)n2)cc1,"inconclusive: 18.4 µM [inhibitor, single point]",
BrC(=C\c1ccccc1)/C=N/Nc1ccc2nncn2n1,"inconclusive: 20.6 µM [inhibitor, single point]",
COC(=O)c1ccc(NC(=O)CC2C(=O)N(c3ccc(C)cc3)C(=O)N2Cc2ccc(OC)cc2)cc1 (stereo not given),"inconclusive: 25.9 µM [inhibitor, single point]",
COC(=O)C1NN=C(C(=O)c2ccc(Cl)cc2)C1c1ccc(OC)cc1 (stereo not given),"inconclusive: 29.1 µM [inhibitor, single point]",
COc1ccc(Nc2nc3ccccc3nc2-n2nc(C)cc2C)cc1,"inconclusive: 16.4 µM [inhibitor, partial curve]",
O=C(CSc1ccc2nnc(-c3cccc(F)c3)n2n1)NCC1CCCO1 (stereo not given),inactive,
COc1ccc(C(C)C)cc1S(=O)(=O)NC1CCCC1,inactive,
O=C(c1cccc2ccccc12)N1CCN(c2ccc([N+](=O)[O-])c(N3CCOCC3)c2)CC1,active: 20.6 µM,
C=CCN(c1nc(C)cc(OC)n1)S(=O)(=O)c1ccccc1,"inconclusive: 29.1 µM [inhibitor, single point]",
Cn1nccc1-c1cc(Cl)cc(Cl)c1O,inactive,
Cc1ccc(S(=O)(=O)Nc2c(NC3CCCCC3)c3ccccc3oc2=O)cc1C,"inconclusive: 29.1 µM [inhibitor, single point]",
CCn1nc(NS(=O)(=O)c2ccc([N+](=O)[O-])cc2)c2cc3cc(C)ccc3nc21,inactive,
COc1ccc(-c2nn(Cc3ccccc3)cc2C(=O)N2CCN(c3ncccn3)CC2)cc1,"inconclusive: 18.4 µM [inhibitor, single point]",
CCn1ncc(Br)c1C(=O)Nc1ccccc1OC,inactive,
Nn1c(SCC(=O)NNC(=O)c2ccccc2)nnc1-c1ccccc1F,inactive,
Cc1ccn2c(Nc3ccccc3C)c(-c3cccnc3)nc2c1,"inconclusive: 29.1 µM [inhibitor, single point] and inconclusive: 23.1 µM [inhibitor, partial curve]",

Structure (SMILES),Potency,"activity change, negative = growth inhibition"
COc1ccc(NS(=O)(=O)c2ccc3c(c2)NC(=O)CO3)cc1,inactive,
COc1ccc(O)c(C(=O)c2cnn(C(=O)c3cc(C)oc3C)c2)c1,"inconclusive: 20.6 µM [inhibitor, partial curve]",
Oc1cc(NCc2cccnc2)ccc1-c1nc2ccccc2o1,"inconclusive: 29.1 µM [inhibitor, single point]",
COc1ccc(S(=O)(=O)N2CCOCC2)cc1NC(=O)c1ccc(OC(F)F)cc1,"inconclusive: 25.9 µM [inhibitor, partial curve]",
O=C1c2cccc3cccc(c23)C(=O)N1CCc1ccccc1,"inconclusive: 20.6 µM [inhibitor, single point]",
Fc1ccc(Nc2c(-c3ccco3)nc3ccccn23)cc1,active: 5.8 µM,
COc1ccc(OC)c(CN2C(=O)c3ccccc3C2c2nnnn2-c2ccc3c(c2)OCCO3)c1 (stereo not given),active: 5.8 µM,
CNS(=O)(=O)c1cc(NC(=O)CCCNC(=O)c2ccc(Cl)cc2)ccc1C,,inconclusive: -34.7% [inhibitor]
N#CCCn1nc(-c2ccc(Br)cc2)cc1Nc1ccccc1NC(=O)C(F)(F)F,"inconclusive: 20.6 µM [inhibitor, single point]",
CS(=O)(=O)N1CCC(C(=O)Nc2ccc(Cl)cc2Cl)CC1,inactive,
COc1cc(OC)cc(C(=O)NNC(=O)c2ccc3c(c2)OCCO3)c1,inactive,
CCOC(=O)C1NN=C(C(=O)c2ccc(C)cc2)C1c1ccc(C)cc1 (stereo not given),active: 20.6 µM,
CCC(C)c1ccc(NC(=S)NCc2ccccn2)cc1 (stereo not given),"inconclusive: 18.4 µM [inhibitor, single point]",
CCS(=O)(=O)N1CCC(C(=O)Oc2ccc(C)c(C)c2)CC1,inactive,
COc1cccc(NC(=S)/C(=C(\[O-])c2ccc([N+](=O)[O-])cc2)[n+]2ccccc2)c1,"inconclusive: 16.4 µM [inhibitor, single point]",
CCCCOc1ccc(C(=O)NCC(=O)NC2CCN(Cc3ccccc3)CC2)cc1,"inconclusive: 20.6 µM [inhibitor, single point]",
Cc1ccc(C2c3[nH]c4ccccc4c3CCN2C(=O)CCc2ccccc2)cc1 (stereo not given),active: 20.6 µM,
CNC(=O)C[C@H]1C(=O)N(CCc2ccccc2)C[C@@H]1C,inactive,
O=c1[nH]c2cc(Br)cnc2nc1/C=C(\O)c1ccc(F)cc1,"inconclusive: 20.6 µM [inhibitor, single point]",
Cc1sc2ncnc(N=Nc3c(O)[nH]c4ccccc34)c2c1C,active: 23.1 µM,
CCN(CC(=O)Nc1ccc(S(N)(=O)=O)cc1)S(=O)(=O)c1cc(C)ccc1OC,"inconclusive: 29.1 µM [inhibitor, single point]",
Cc1ccc(NC(=O)Cn2cnc3sc(C(=O)NCc4ccco4)c(C)c3c2=O)cc1Cl,"inconclusive: 23.1 µM [inhibitor, single point]",
